In patent US20140079713A1 (INSTITUT DE RECHERCHES CLINIQUES DE MONTREAL, published 2014):

T1: PTCH1-GFP (mouse, UniProt Q61115 1-1434)
T1 construct: whole, on cells; also called pEGFP-mPtch1; mPtch1; not shown: GFP (EGFP) tag
T1 sequence (looked up): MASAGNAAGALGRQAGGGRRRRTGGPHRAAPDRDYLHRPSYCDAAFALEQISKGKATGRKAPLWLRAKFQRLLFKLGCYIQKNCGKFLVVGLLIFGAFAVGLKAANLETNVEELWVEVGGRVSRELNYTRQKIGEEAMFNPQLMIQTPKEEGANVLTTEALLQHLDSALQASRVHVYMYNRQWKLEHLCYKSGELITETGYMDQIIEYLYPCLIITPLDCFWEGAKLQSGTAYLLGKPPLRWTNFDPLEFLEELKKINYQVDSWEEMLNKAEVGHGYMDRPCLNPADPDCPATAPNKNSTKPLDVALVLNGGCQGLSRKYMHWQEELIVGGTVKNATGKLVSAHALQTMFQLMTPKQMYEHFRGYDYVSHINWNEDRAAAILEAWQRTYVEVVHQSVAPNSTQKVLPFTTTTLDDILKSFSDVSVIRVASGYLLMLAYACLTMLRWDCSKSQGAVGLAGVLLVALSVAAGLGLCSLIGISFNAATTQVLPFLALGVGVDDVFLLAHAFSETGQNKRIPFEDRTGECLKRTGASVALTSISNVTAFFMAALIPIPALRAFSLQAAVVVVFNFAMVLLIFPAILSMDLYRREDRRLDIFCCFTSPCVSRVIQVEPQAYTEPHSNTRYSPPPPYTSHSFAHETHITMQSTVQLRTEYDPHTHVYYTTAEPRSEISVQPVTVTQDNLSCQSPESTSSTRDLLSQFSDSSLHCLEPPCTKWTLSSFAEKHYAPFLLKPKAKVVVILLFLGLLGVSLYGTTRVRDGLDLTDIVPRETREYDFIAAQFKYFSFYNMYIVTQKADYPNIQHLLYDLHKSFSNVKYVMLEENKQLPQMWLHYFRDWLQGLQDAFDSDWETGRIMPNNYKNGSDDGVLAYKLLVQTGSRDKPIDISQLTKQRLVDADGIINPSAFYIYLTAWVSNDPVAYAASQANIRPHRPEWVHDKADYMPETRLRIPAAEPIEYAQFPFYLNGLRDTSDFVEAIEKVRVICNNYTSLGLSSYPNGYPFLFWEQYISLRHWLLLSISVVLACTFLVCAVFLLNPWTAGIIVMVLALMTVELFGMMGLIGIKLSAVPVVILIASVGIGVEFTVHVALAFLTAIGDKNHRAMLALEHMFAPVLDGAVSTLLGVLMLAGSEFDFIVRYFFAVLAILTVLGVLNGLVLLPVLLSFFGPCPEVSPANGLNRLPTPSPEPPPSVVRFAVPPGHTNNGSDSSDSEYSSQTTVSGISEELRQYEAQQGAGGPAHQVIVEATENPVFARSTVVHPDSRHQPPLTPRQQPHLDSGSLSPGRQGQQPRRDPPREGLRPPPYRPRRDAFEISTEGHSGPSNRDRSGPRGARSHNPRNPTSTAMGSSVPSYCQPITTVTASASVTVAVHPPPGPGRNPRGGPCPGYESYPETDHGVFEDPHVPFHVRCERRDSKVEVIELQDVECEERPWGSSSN


Columns and labels:
Shh = molecular target: T2, Shh; test: column 'Shh Binding' beside the construct diagram; assay not given in the legend
T2 construct: also called Sonic hedgehog; not shown: alkaline phosphatase tag, if the probe was ShhN-AP
T2 sequence (chain, as listed by the source limits assumed): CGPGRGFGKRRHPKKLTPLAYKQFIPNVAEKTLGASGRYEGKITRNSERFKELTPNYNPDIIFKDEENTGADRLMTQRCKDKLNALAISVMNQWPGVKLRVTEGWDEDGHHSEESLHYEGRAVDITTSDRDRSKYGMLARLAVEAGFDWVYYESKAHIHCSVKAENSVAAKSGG

PTCH1-GFP = molecular target: T1, PTCH1-GFP; test: cell surface binding: conditioned medium with the Fc protein on COS7 cells expressing PTCH1-GFP, HRP-conjugated anti-Fc antibody, peroxidase activity
Experimental: FIG. 5B: BOC interacts with PTCH1 in a constitutive manner. COS7 cells expressing PTCH1-HA and BOC-Flag were treated with ShhN and subjected to anti-HA IP and either anti-Flag or anti-HA IB. FIG. 5C: The PTCH1 L2 region is not required for the BOC-PTCH1 interaction. Anti-HA IP was performed on COS7 lysates expressing Boc-Flag and PTCH1-HA or PTCH1ΔL2-followed by anti-Flag or anti-HA IB. FIG. 5D: The BOC cytoplasmic tail is not involved in the BOC-PTCH1 interaction. COS7 cells expressing PTCH1-HA and BOC-GFP or BOCΔcyto-GFP were subjected to anti-GFP IP and either anti-HA or anti-GFP IB. FIGS. 5E and F: PTCH1 forms receptor complexes with either BOC or GAS1 but not both. BOC-Flag was co-transfected with GAS1 with or without PTCH1-GFP in COS7 cells. FIG. 5E: Lysates were IP with anti-Flag antibodies, followed by anti-GAS1 or anti-GFP IB. FIG. 5F: Lysates were first immunoprecipated (IP #1) with anti-GAS1 antibodies. Supernatants from IP#1 were subjected to a second immunoprecipitation (IP #2) with anti-Flag antibodies. Both anti-GAS1 (IP #1) and anti-Flag (IP #2) immunoprecipitates were IB with anti-GAS1, anti-Flag and anti-GFP antibodies. See FIG. 11 for a schematic of this experiment. In FIGs. A to F, protein expression inputs were verified by IB with the indicated antibodies. ns, non-specific. […] Bound proteins were labeled with HRP-conjugated anti-Fc antibody and peroxidase activity measured; […]

| binding result (Shh) | binding result (PTCH1-GFP) | Binder |
| --- | --- | --- |
| no binding | no binding | Boc IgCAM-Fc (Fc fusion, also called IgCAM domains of BOC fused to Fc) Fc fusion chain: DLNEVPQVTVQPMSTVQKLGGTVILGCVVEPPWMNVTWRFNGKELNGSDDALGVFITRGTLVIAALNNHTVGRYQCVARMPAGAVASVPATVTLANLQDFKLDVQHVIEVDEGNTAVIACHLPESHPKAQVRYSVKQEWLEASRDNYLIMPSGNLQIVNASQEDEGMYKCAAYNPVTQEVKTSGSGDRLRVRRSTAEAARIIYPLEAQTVIVTKGQSLILECVASGIPPPRVTWAKDGSSIAAYNKTRFLLSNLLIDTTSEEDSGTYRCMASNGVGDPGAAVILYNVQVFEPPEVTVELSQLVIPWGQSAKLTCEVRGNPPPSVLWLRNAVPLTSSQRLRLSRRALRVVSVGPEDEGVYQCMAENAVGSAHAVVQLRTARPDTTLRPGSITLAAARSSMHL[human IgG1 Fc cut from this listing] |
| no binding |  | FNIIIab-Fc (Fc fusion, also called BOC FNIII(ab); FNIIIab domains of BOC fused to Fc) SVGPEDEGVYQCMAENAVGSAHAVVQLRTARPDTTLRPGRDTKPIAATPPMPPSRPSRPDQMLREQPGLVKPPTSSVQPTSLKCPGEEQVAPAEAPIILSSPRTSKTDSYELVWRPRHEGSSRTPILYYVVKHRKVTNSSDDWTISGIPANQHRLTLTRLDPGSLYEVEMAAYNCAGEGQTAMVTFRTGRRPKPEIVASKEQQIQRDDPGASLQSSSQPDHGRLSPPEAPDRPTISTASETSVYVTWIPRGNGGFPIQSFRVEYKKLKKVGDWILATSAIPPSRLSVEITGLEKGISYKFRVRALNMLGESEPSAPSRPYVVSGYSGGRKPNSADIHHTGGRSSMHL[human IgG1 Fc cut from this listing] |
